Measured values: article PMC4336329 (PLoS ONE, 2015)
In all, about 310,000 compounds went through this assay and about 14,000 (4.5%) showed an effect of 50% or more. Effects have a minus sign here. The list shows a part of the results.

These molecules were tested against human ether-à-go-go-related gene (hERG) potassium channel (human, UniProt Q12809) (assay: primary screen, population patch clamp on CHO cells stably expressing hERG).
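Also: peak tail current of the secondary pulse compared with the same well before compound.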

Sequence of human ether-à-go-go-related gene (hERG) potassium channel (Q12809 whole entry, looked up): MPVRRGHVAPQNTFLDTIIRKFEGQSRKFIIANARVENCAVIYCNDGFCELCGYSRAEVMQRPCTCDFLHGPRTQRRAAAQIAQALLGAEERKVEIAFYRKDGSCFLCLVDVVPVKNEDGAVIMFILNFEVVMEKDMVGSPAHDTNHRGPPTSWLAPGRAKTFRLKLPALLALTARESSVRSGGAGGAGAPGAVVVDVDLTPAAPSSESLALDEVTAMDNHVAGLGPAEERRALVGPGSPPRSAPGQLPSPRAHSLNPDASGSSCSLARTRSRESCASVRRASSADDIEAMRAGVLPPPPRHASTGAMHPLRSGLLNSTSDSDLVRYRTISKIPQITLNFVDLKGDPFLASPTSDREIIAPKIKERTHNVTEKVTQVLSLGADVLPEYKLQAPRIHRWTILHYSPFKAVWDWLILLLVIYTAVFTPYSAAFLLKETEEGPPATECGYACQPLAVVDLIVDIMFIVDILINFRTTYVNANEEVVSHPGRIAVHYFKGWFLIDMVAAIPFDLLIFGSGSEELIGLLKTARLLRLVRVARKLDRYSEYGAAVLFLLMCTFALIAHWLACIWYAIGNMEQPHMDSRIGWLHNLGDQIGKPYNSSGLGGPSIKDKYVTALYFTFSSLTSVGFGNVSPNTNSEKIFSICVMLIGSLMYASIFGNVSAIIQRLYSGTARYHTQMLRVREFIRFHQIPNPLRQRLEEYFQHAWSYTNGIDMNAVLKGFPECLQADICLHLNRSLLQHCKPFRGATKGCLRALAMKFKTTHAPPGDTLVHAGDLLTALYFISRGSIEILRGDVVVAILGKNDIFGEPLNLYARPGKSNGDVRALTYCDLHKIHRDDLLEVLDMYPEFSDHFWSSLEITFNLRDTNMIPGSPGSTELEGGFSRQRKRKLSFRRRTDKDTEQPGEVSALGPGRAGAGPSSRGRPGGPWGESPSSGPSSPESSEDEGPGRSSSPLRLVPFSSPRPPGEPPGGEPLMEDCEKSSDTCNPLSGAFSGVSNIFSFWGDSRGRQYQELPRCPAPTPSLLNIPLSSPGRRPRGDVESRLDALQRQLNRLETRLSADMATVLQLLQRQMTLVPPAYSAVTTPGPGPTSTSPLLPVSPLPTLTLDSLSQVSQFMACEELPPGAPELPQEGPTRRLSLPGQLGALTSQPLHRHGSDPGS

Structure (SMILES)	hERG current change (%, negative = inhibition) at 10uM [%]
CCCCOc1cc(=O)[nH]c(=O)[nH]1	17.3
O=C(NC(=S)NCCO)c1cn(-c2ccccc2)nc1-c1ccccc1	22.9
Cc1ccc(S(=O)(=O)NN2C(=O)c3ccccc3NC2C)cc1 (centres unmarked)	-7.72
O=C(O)CNS(=O)(=O)c1ccc(Br)s1	-3.74
CCOC(=O)C(NC(=O)C1CCCN1C(=O)OCc1ccccc1)C(=O)OCC (centres unmarked)	-0.938
COc1ccc(N2C(=O)C(Cl)=C(N3CCCC(C)C3)C2=O)cc1 (centres unmarked)	4.81
COc1ccc(-c2noc(N3CCC(C(=O)NCc4ccccc4Cl)CC3)n2)cc1	-11.9
Cc1cccc(Nc2ccc([N+](=O)[O-])cc2C(=O)O)c1	3.44
CCCCN(CCCC)C(=O)C1CC=CCC1C(=O)O (centres unmarked)	6.74
O=C(O)c1ccc2c(c1)C(=O)N(c1ccccc1-c1ccccc1)C2=O	5.93
CC(=O)C1=C(O)C(=O)N(c2ccc(Br)cc2)C1c1ccc(Cl)cc1 (centres unmarked)	16.8
CCc1ccc(S(=O)(=O)N2c3ccc(C)cc3C3CN(C)CCC32)cc1 (centres unmarked)	-60.4
COC(C[C@H]1O[C@H]1C(=O)[C@@H](C)OCc1ccccc1)OC	18.8
CCc1c(O)nc(SCC(=O)N2CCCCC2)n(-c2ccccc2C)c1=O	1.44
O=C(CSc1ncnc2ccccc12)c1ccco1	14.5
CN1CCN(c2oc(-c3ccccc3F)nc2S(=O)(=O)c2ccc(Cl)cc2)CC1	-57.6
CCOc1ccc(-n2c(-c3ccccc3)c[n+]3c2CCCCC3)cc1.[Br-]	-67
O=C(CN(Cc1ccccc1Cl)C(=O)c1csnn1)NCc1ccc2c(c1)OCO2	-51.4
CSc1ccc(-c2cc(=O)c3ccccc3o2)cc1	-0.926
Nc1ccc2c(c1)C(=O)N(CCCCCC(=O)O)C2	5.05
COc1ccc(Cn2c(=O)[nH]c3cc(C(=O)N4CCN(c5ccccc5)CC4)ccc3c2=O)cc1	9.23
O=C(CSc1ccccc1C(=O)O)NCC1CCCCC1	-13
COc1ccc(-n2nc(C)c3onc(C)c3c2=O)cc1	10

Structure (SMILES)	hERG current change (%, negative = inhibition) at 10uM [%]
Cc1ccccc1C(=O)NC(C)C(c1cccs1)N1CCOCC1 (centres unmarked)	-18.3
CC[C@@]1(c2ccccc2OC)C(=O)N(C(=O)OC)N1C(=O)OC	17.5
CCCNC(=O)NC(=O)COC(=O)c1ccc(S(=O)(=O)N(C)c2ccccc2OC)cc1	10.5
Cc1nc(C(C)(C)O)n(-c2ccccc2)n1	4.91
Cn1nnc(NC(=O)CSc2nnnn2-c2ccc(F)cc2)n1	-9.19
COc1ccc(-c2[nH]ncc2CN(C)C(C)c2ccncn2)c(F)c1 (centres unmarked)	-0.232
CNC(=O)c1ccc(-n2nc(C)cc2-c2ccccc2)cc1	6.86
CC(C)(C)c1cc(OC(=O)Cc2ccccc2)ccc1O	17.1
CCCCCCC1CCC(C(=O)Nn2c(C)nc3ccccc3c2=O)CC1 (centres unmarked)	25.7
CC(=O)O.CN1CCCC(CN2c3ccccc3Sc3ccccc32)C1 (centres unmarked)	-28.4
Cl.NCc1ccccc1	-5.79
Cc1c(N(C(=O)Nc2ccccc2)C2=NCC(C)S2)c(=O)n(-c2ccccc2)n1C (centres unmarked)	-28.8
Cc1noc(C)c1COC(=O)c1cc2c3ccccc3n(C)c2s1	7.19
COc1cc(OC)cc(C(=O)N[C@H](C(=O)Nc2nc3ccc(S(C)(=O)=O)cc3s2)C(C)C)c1	-8.64
O=C(c1ccc2nc3ccc(Cl)cc3c(=O)n2c1)N1CCC2(CC1)OCCO2	-40.3
N#C/C(=C/c1ccc(-c2ccc(C(=O)O)c(Cl)c2)o1)C(=O)NCC1CCCO1 (centres unmarked)	12.3
O=S(=O)(c1cccc2nonc12)N1CCCCCC1	5.98
Cc1ccc(S(=O)(=O)N2CCC(=O)N(C(COCc3ccc(C(F)(F)F)cc3)C(C)C)CC2)cc1 (centres unmarked)	-36.7
NS(=O)(=O)c1cccc(NC(=O)COC(=O)CN2C(=O)C3CC=CCC3C2=O)c1 (centres unmarked)	23.4
C=CCOC(=O)C(=O)/C=C/c1c(C)n(C)n(-c2ccccc2)c1=O	27.2
CCn1c(=O)cc(N2CCC3(CC2)OCCO3)[nH]c1=O	10.1
COc1cc(Cn2c(-c3ccc(O)c(OC)c3)nc3ccccc32)ccc1O	-49.3
CCOC(=O)c1cnn(-c2ccccc2)c1-n1cccc1C(=O)C(=O)Nc1ccccc1C(F)(F)F	-1.11

Structure (SMILES)	hERG current change (%, negative = inhibition) at 10uM [%]
O=C1CN(c2ccc(Cl)cc2)C(=O)CN1NC(=S)Nc1ccc(Cl)cc1	-3.95
COC(=O)Oc1ccc(/C=N/NC(=O)CSCc2ccccc2Br)cc1OC	-22.3
CC(Sc1ccc(Br)cc1)C(N)=O (centres unmarked)	10.9
Cc1c(C(=O)O)sc(=S)n1CCOc1ccccc1	13.2
C=CCN1C(=O)C(CC(=O)Nc2ccccc2F)S/C1=N\c1nccs1 (centres unmarked)	7.51
O=c1ccn(Cc2ccccc2)cc1	13.3
COc1ccccc1N1CCN(C(=O)c2cn(-c3ccccc3)nc2-c2cccnc2)CC1	-50.2
COC(=O)c1nc(N)sc1-c1ccc(Cl)c(Cl)c1	-4.08
COc1ccc(CCNC(=O)CSc2nc(C)nc3sccc23)cc1OC	-2.67
Cc1cc(SCC(=O)Nc2cccc(S(N)(=O)=O)c2)c(C)cc1Br	30.8
COc1ccc(Br)c(C(=O)N2CCN(S(=O)(=O)c3cccs3)CC2)c1	-9.75
CCCn1c(N)c(C(=O)CSc2nc(C)cs2)c(=O)[nH]c1=O	-23.3
CC(C)n1nnnc1SCC(=O)Nc1ccccc1F	4.86
Cn1c(Cn2nnc3ccccc32)nnc1SCC(=O)c1ccc(F)cc1	-14.2
N#CCCNS(=O)(=O)c1ccc(C(=O)OCC(=O)Nc2ccc3c(c2)OCO3)cc1	3.84
CCOc1cc(C(=O)Nc2ccc(C)cc2C)ccc1OCC(=O)N1CCCCC1	-6.48
Cc1cccc(NC(=O)C2CCN(S(=O)(=O)c3ccc4c(c3)OCCO4)CC2)n1	-42.4
Cc1ccc(CNC(=O)CN2C(=O)NC(C)(c3cccc(Br)c3)C2=O)cc1 (centres unmarked)	3.24
CCOc1ccccc1C(=O)NCC(=O)NCCc1ccc(S(N)(=O)=O)cc1	21.5
O=C(/C=C/c1cccc([N+](=O)[O-])c1)NCCSCc1c(Cl)cccc1Cl	-11.9
COc1ccccc1C(=O)NCCC(=O)NCC(c1ccco1)N1CCCC1 (centres unmarked)	13.7
COc1cc([N+](=O)[O-])ccc1NC(=O)Cc1ccc(F)cc1	0.277
COc1ccc(NS(=O)(=O)c2ccc(O)c(C(=O)OCC(=O)NC(C)C3CC4CCC3C4)c2)cc1 (centres unmarked)	5.43

Structure (SMILES)	hERG current change (%, negative = inhibition) at 10uM [%]
O=S(=O)(c1cccc(Cl)c1)N1CCCC1	6.2
O=S(=O)(Nc1nc2ccccc2nc1Nc1ccc2c(c1)OCCO2)c1cccs1	0.546
CC(C)c1nc(SCC(=O)Nc2nccs2)c2ccccc2n1	13.7
CCC(C)/C(C)=N/NC(=O)C1COc2ccccc2O1 (centres unmarked)	2.58
COCCNC(=O)c1cc2oc3ccccc3c2n1C	4.53
CCn1c2nc(SCCN3CCOCC3)nnc2c2cc(C)cc(C)c21	-95.3
COc1ccc(NC(=O)C2CSC3c4ccccc4C(=O)N23)cc1 (centres unmarked)	-6.44
O=C(Nc1ccc(S(=O)(=O)N2CCOCC2)cc1)c1ccc([N+](=O)[O-])s1	5.57
O=c1[nH]c(=O)n(Cc2ccc(F)cc2)c(O)c1C=NCC1CCCO1 (centres unmarked)	-13
CCOC(=O)N1CCN(C(=O)CC(C)S(=O)(=O)c2cc3c(cc2C)NC(=O)CO3)CC1 (centres unmarked)	-34.7
O=C(Cc1ccc(F)cc1)Nc1nc(-c2ccc(F)c(F)c2)cs1	18
COc1cc(NC(=O)COC(=O)CNC(=O)c2ccc(C)s2)cc(OC)c1	4.76
COc1ccc(NC(=O)NCCc2c[nH]c3ccccc23)c(OC)c1	-5.03
COc1ccc(CSC2=CS(=O)(=O)c3ccccc3N2)cc1	1.85
Nc1nnc(SCC(=O)OCC(=O)NC2CCCCC2)s1	28
O=C1OC(c2ccc([N+](=O)[O-])cc2)=N/C1=C/N1CC2CC(C1)c1cccc(=O)n1C2 (centres unmarked)	-55.1
CN1C(=O)c2ccccc2Sc2ccc(NC(=O)N3CCOCC3)cc21	-7.88
COc1cccc(N2CCN(C(=O)c3ccc(CS(=O)c4ccc(C)cc4)o3)CC2)c1 (centres unmarked)	-18.5
CN(C)C(=O)/C(=C/c1cn(-c2ccccc2)nc1-c1cccc([N+](=O)[O-])c1)NC(=O)c1ccccc1	-29.1
COc1cc(OC)nc(Oc2cccc(Cl)c2C)n1	9.05
